From paper PMC6212790
The other results are listed elsewhere or left out. At the low end of the ranking the order means little.

Molecular target: T1, GST-Rok (full length) (UniProt O34857)
T1 sequence: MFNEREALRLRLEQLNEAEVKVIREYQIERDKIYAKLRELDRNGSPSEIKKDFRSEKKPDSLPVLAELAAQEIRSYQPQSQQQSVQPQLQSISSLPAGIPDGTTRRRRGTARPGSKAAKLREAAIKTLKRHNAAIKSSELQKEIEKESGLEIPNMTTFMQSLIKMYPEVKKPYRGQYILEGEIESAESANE
Assay: protein binding microarray;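 also: rank score from −0.5 (least bound) to 0.5 (best bound)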
Settings: Rok is a gene silencer of Bacillus subtilis; high values mean tight binding; most listed sequences are background and not binding sites; double strand, one strand shown

Row | Sequence | binding signal [E-score]
1 | ACGGACAG | -0.181
2 | TCGGGTAA | -0.0826
3 | ATTAGTTC | 0.172
4 | TGATATAA | 0.371
5 | ATGAATTG | 0.0516
6 | GCTCCCTA | -0.21
7 | AGAGAGCC | -0.214
8 | CAACGGAG | -0.248
9 | AGAGGCAA | -0.285
10 | AAAGCTGC | 0.0771
11 | ATGGTGAG | -0.0135
12 | GGTCCGTA | -0.151
13 | GCAGTAGC | -0.0296
14 | CTGCCATA | -0.0185
15 | GAGACCTC | -0.168
16 | CGTTTGGC | -0.0418
17 | ATACCCTA | 0.171
18 | GTTTCTAA | -0.0108
19 | CCCGAACA | -0.132
20 | GAAAGACC | -0.174
21 | ACAGTCGG | 0.0449
22 | CTCTGAGC | -0.24
23 | ATGTCTTC | -0.121
24 | CCAATCTC | 0.147

Row | Sequence | binding signal [E-score]
25 | ATATCAAT | 0.327
26 | AAGGAATA | -0.00782
27 | GAGACGCC | -0.274
28 | ACTATGAC | 0.186
29 | CACCAGCG | -0.221
30 | AAGCTAAA | 0.14
31 | CATAGATA | 0.3
32 | CAGGTCGG | -0.281
33 | AGACCCAG | -0.256
34 | AAATCCTG | 0.00397
35 | CAGAAGAG | -0.296
36 | CCGTCCAA | -0.206
37 | CCCTGAGC | -0.339
38 | CATAGGCA | 0.0952
39 | CACATTGC | -0.119
40 | AAGAAAAT | 0.0829
41 | AACGCTGT | -0.174
42 | CAGCTTAG | -0.0865
43 | AATTGACC | 0.049
44 | CGCCGAGC | -0.259
45 | CAAAGATA | 0.164
46 | GTTGTCAA | 0.0198
47 | CGGTACAA | 0.0777
48 | ATTGCCCA | 0.0385

Row | Sequence | binding signal [E-score]
49 | CCGTAACG | -0.215
50 | ATGGTTGG | -0.131
51 | CACATGCA | 0.162
52 | GAGCCCCC | -0.393
53 | CATAGGCC | -0.348
54 | CAAACAAC | 0.00627
55 | AACCGGGC | -0.145
56 | CTTCTTGA | -0.132
57 | CCGTGTCG | -0.229
58 | ATGTTGGA | 0.082
59 | GCTAGCCA | 0.0444
60 | ATGATATA | 0.389
61 | ATGCTTAA | -0.0105
62 | AAGTATGC | 0.156
63 | AAACCCCC | -0.248
64 | GGCTCTAC | -0.0126
65 | AGGAGTGG | -0.282
66 | TCCCCGCA | -0.367
67 | GCACGAAA | -0.0319
68 | ACGAAAAC | -0.102
69 | TAAATCTA | 0.308
70 | CTCTCAAC | 0.0234
71 | ACGTATGG | 0.156
72 | TCCTCCGA | -0.265

Row | Sequence | binding signal [E-score]
73 | GCCATTCC | -0.144
74 | GCCAAAGA | -0.214
75 | GAAAGAAA | 0.0636
76 | GAAGCTCA | -0.168
77 | GACTGGAA | 0.132
78 | ACGGTAGT | 0.373
79 | CTGCTACA | 0.259
80 | AATTAAAC | 0.0743
81 | TAAATTAA | 0.28
82 | AGGCGCCA | -0.0988
83 | ACCCCAGC | -0.231
84 | ACCGTGCC | -0.206
85 | AAAGTTTG | 0.113
86 | TATTGTAA | 0.2
87 | CGGAATCA | 0.0438
88 | CACAAAAA | 0.0676
89 | CATACCTC | 0.0284
90 | TGCTAGCA | 0.0889
91 | TAACAAGA | 0.167
92 | AGCGGACG | -0.0349
93 | AGTTACAC | 0.314
94 | CAGACAAC | -0.0228
